The source of these data is publication PMC4336329 (PLoS ONE, 2015).

Out of some 310,000 compounds screened, about 2,200 (0.71%) showed an effect of 50% or more. Effects have a minus sign here. This is one part of the list.

The target in the test is human ether-à-go-go-related gene (hERG) potassium channel (human, UniProt Q12809). In words: primary screen, population patch clamp on CHO cells stably expressing hERG.
Sequence of human ether-à-go-go-related gene (hERG) potassium channel (Q12809 whole entry, looked up): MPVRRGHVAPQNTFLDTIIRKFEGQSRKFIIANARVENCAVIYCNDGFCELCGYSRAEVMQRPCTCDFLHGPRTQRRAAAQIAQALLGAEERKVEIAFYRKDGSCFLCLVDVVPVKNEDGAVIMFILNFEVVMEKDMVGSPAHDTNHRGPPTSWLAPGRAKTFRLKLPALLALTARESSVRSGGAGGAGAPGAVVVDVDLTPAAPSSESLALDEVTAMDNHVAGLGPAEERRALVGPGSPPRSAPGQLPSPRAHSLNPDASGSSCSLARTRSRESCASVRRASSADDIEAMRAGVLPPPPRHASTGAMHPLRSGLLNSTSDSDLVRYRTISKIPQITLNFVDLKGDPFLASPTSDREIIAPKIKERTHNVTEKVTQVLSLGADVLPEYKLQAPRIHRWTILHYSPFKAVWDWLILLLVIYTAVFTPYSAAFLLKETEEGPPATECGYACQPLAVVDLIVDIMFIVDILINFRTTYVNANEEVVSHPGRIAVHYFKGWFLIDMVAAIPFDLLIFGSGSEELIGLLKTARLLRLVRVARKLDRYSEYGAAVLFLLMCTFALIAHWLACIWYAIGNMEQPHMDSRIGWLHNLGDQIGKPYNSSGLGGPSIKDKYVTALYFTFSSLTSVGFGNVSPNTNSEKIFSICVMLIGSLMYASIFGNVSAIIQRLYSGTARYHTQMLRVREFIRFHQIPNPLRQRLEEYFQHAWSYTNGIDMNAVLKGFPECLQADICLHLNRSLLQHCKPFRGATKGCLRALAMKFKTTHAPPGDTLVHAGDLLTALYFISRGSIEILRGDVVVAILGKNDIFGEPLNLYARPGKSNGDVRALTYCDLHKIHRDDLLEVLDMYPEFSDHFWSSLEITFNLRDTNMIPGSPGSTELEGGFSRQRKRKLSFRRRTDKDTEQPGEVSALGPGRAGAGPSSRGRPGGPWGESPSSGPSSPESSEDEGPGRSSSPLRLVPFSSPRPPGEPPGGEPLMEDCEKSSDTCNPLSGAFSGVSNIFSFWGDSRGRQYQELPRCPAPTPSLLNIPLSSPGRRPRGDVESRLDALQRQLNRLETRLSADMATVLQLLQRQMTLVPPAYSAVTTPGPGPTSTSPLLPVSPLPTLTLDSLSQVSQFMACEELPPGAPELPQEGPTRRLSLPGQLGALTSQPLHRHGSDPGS
For the molecule `CCOc1ccc(N2C(=O)CC(SC(=NC)Nc3ccc(F)cc3)C2=O)cc1` (centres unmarked), the “hERG current change (%, negative = inhibition) at 1uM” value turned out to be 0.76%.

As for `CCOC(=O)N1CCN(c2cc(=O)n(-c3cccc(Br)c3)c(=O)[nH]2)CC1`, the “hERG current change (%, negative = inhibition) at 1uM” value is given as 14.7%.

For `CCN(CC)c1ccc(/C=C2\CCC(/C=N/NC(=O)c3ccc(=O)n(C)c3)=C2N2CCOCC2)cc1`, the “hERG current change (%, negative = inhibition) at 1uM” value amounted to 12.8%.

As for `N#CC(=C=[N-])/C=C(\C(=O)c1ccccc1)[n+]1ccccc1`, the “hERG current change (%, negative = inhibition) at 1uM” value was 13.9%.

For `O=C(COC(=O)c1cc(S(=O)(=O)N2CCOCC2)ccc1Cl)NC1CC1`, the “hERG current change (%, negative = inhibition) at 1uM” value is 12%.

Consider `CCOc1ccccc1NS(=O)(=O)c1ccc(-c2cnc(C3CC3)o2)cc1`, for which the “hERG current change (%, negative = inhibition) at 1uM” value was 13.6%.

`O=C(N/N=C\c1ccc([N+](=O)[O-])s1)c1cncc(Br)c1`: the “hERG current change (%, negative = inhibition) at 1uM” value amounted to 8.45%.

As to `Cc1ccc(SCCC(=O)OCC(=O)Nc2ccc(C(N)=O)cc2)cc1`, the “hERG current change (%, negative = inhibition) at 1uM” value is given as 6.02%.

Turning to `COc1ccc(S(=O)(=O)Nc2c(C)cccc2C)cc1-n1cnnn1`, the “hERG current change (%, negative = inhibition) at 1uM” value was determined as 8.44%.

Turning to `O=C(CSc1ccccc1)Nc1ccccc1N1CCOCC1`, the “hERG current change (%, negative = inhibition) at 1uM” value is reported as -0.599%.

For the molecule `CC1=Nn2c(nnc2-c2ccccc2Cl)SC1`, the “hERG current change (%, negative = inhibition) at 1uM” value is given as 19.7%.

On to `O=C(CSc1nc2ccccc2[nH]1)NCCc1ccc(Cl)cc1`, for which the “hERG current change (%, negative = inhibition) at 1uM” value is recorded as 9.95%.

As to `Cc1cc(C(=O)CSc2ccc(F)cc2)cc(C)c1O`, the “hERG current change (%, negative = inhibition) at 1uM” value is reported as 8.64%.

Consider `O=C(COC(=O)CNS(=O)(=O)c1ccccc1)Nc1ncc(Cl)cc1Cl`, for which the “hERG current change (%, negative = inhibition) at 1uM” value turned out to be 4.68%.

Regarding `Cc1ccc(CNc2ccc3c(c2)nc(C)n3C)cc1`, the “hERG current change (%, negative = inhibition) at 1uM” value was determined as 8.36%.

Take `O=C(CN(C(=O)c1csnn1)c1cccc(C(F)(F)F)c1)NCCc1ccccc1`: the “hERG current change (%, negative = inhibition) at 1uM” value was 15.4%.

In the case of `Cc1ccc(C)c(Cn2c(C)nc3c(sc(=S)n3-c3ccccc3)c2=O)c1`, the “hERG current change (%, negative = inhibition) at 1uM” value was found to be 3.59%.

In the case of `O=C(c1ccccc1)n1ccc(-c2cccs2)n1`, the “hERG current change (%, negative = inhibition) at 1uM” value turned out to be 15.5%.

Turning to `CCOC(=O)c1cccc(NC(=O)CSc2nnc(C)n2CC2CCCO2)c1` (centres unmarked), the “hERG current change (%, negative = inhibition) at 1uM” value is recorded as 12.3%.

For `CCOC(=O)c1cc(-c2ccccc2)sc1NC(=O)C(C)Sc1nnc(C)s1` (centres unmarked), the “hERG current change (%, negative = inhibition) at 1uM” value worked out at 12%.

As for `Cc1cccc(-c2nnn(C/C(N)=N/O)n2)c1`, the “hERG current change (%, negative = inhibition) at 1uM” value is 3.25%.

On to `COC(=O)c1ccccc1NC(=O)CN(C1CCCCC1)S(C)(=O)=O`, for which the “hERG current change (%, negative = inhibition) at 1uM” value is listed as -4.34%.

For the molecule `COc1ccc(C(CNC(=O)C(C)(C)Oc2ccc(Cl)cc2)N2CCCCC2)cc1` (centres unmarked), the “hERG current change (%, negative = inhibition) at 1uM” value is listed as -15.9%.

On to `CCC(Oc1ccc(C)c(C)c1)C(=O)O` (centres unmarked), for which the “hERG current change (%, negative = inhibition) at 1uM” value is reported as 8.88%.

Consider `COc1ccc(C(=O)Oc2c(C)occc2=O)cc1OC`, for which the “hERG current change (%, negative = inhibition) at 1uM” value was determined as 7.03%.

Turning to `COc1ccc(/C=N/NC(=O)CCOc2ccccc2C)cc1OC`, the “hERG current change (%, negative = inhibition) at 1uM” value is listed as -2.76%.

As for `CC(Sc1ccccn1)C(=O)Nc1ccc2c(c1)OCCO2` (centres unmarked), the “hERG current change (%, negative = inhibition) at 1uM” value came to 0.136%.

With `O=C(CN(C(=O)c1csnn1)c1cccc(Cl)c1)NC1CCCCC1`, the “hERG current change (%, negative = inhibition) at 1uM” value is 6.55%.

Take `COc1cc(/C=C/C(=O)O)cc(S(=O)(=O)N2CCc3ccccc32)c1OC`: the “hERG current change (%, negative = inhibition) at 1uM” value worked out at 2.85%.

With `Cc1ccccc1-c1nnc(SCC(=O)N(C)c2c(N)n(Cc3ccccc3)c(=O)[nH]c2=O)n1C`, the “hERG current change (%, negative = inhibition) at 1uM” value is recorded as 14.6%.

On to `O=C1NCCN/C1=C\C(=O)c1ccccc1`, for which the “hERG current change (%, negative = inhibition) at 1uM” value is on record as -0.802%.

For the molecule `S=C(Nc1cccc(Cl)c1Cl)Nn1cnnc1`, the “hERG current change (%, negative = inhibition) at 1uM” value stood at 12.7%.

As for `CCCc1cc(=O)oc2cc(OCC(=O)NCc3cccs3)ccc12`, the “hERG current change (%, negative = inhibition) at 1uM” value was 0.211%.

Regarding `COc1ccc(C(=O)On2c(-c3ccc(Br)cc3)nc3ccccc3c2=O)cc1`, the “hERG current change (%, negative = inhibition) at 1uM” value came out at 2.62%.

Consider `CCn1c(SCC(=O)N/N=C/c2ccncc2)nc2ccccc21`, for which the “hERG current change (%, negative = inhibition) at 1uM” value was 6.75%.

In the case of `O=C(Nc1ccc(F)cc1)c1ccccc1Oc1ccc(C(F)(F)F)cc1[N+](=O)[O-]`, the “hERG current change (%, negative = inhibition) at 1uM” value was determined as 3.81%.

Take `CCc1nnc(NC(=O)C2CCC(CNc3c(N4CCC(C)CC4)c(=O)c3=O)CC2)s1` (centres unmarked): the “hERG current change (%, negative = inhibition) at 1uM” value came out at 25.6%.

As to `CCCCc1nc2cc(C(=O)N3CCNC(=O)C3)ccc2o1`, the “hERG current change (%, negative = inhibition) at 1uM” value amounted to 14.8%.

`CCn1c(SCc2cccc(C)c2)nnc1-c1ccccc1`: the “hERG current change (%, negative = inhibition) at 1uM” value is recorded as 14.2%.

Turning to `Cc1onc(-c2ccccc2)c1C(=O)Nc1ccc(Cl)cn1`, the “hERG current change (%, negative = inhibition) at 1uM” value is 10.1%.

In the case of `COCCN(C(=O)COC(=O)c1nc(Cl)ccc1Cl)c1c(N)n(Cc2ccccc2)c(=O)[nH]c1=O`, the “hERG current change (%, negative = inhibition) at 1uM” value is reported as 20.3%.

Turning to `COc1ccc(CN2CCOCCOCCOCCOCC2)cc1`, the “hERG current change (%, negative = inhibition) at 1uM” value is on record as -6.82%.

For the molecule `Cn1c(=O)n(C)c2cc(C(=O)O)ccc21`, the “hERG current change (%, negative = inhibition) at 1uM” value was -13.6%.

As for `O=C(Nc1cccc(-c2ccc(N3CCOCC3)nn2)c1)c1ccc(F)cc1F`, the “hERG current change (%, negative = inhibition) at 1uM” value came to 5.7%.
